Reference: PubChem BioAssay AID1963576 (National Center for Advancing Translational Sciences (NCATS), 2024)
About 60 (0.1%) of roughly 46,000 compounds were called active. Another 3% or so got no clear call; they are omitted. Calls follow the shape of the dose curve; as a rule, active = well fitted inhibition curve with a large enough effect; inconclusive = small, poorly fitted or top-dose-only effect; inactive = no such curve, though single readings can be large or run the other way. The list shows a part of the results.

Assay: Primary qHTS assay for Inhibitors of ovarian cancer metastasis using an organotypic tumor microenvironment (TME) model. Also: nearly all actives have a fitted effect of over 65% in size.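 As to activity change, negative = inhibition: plate controls were DMSO wells for no effect and tomatine positive control wells for full effect.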
Conditions: SKOV3ip1-GFP adhesion/invasion on 3D omental model, fluorescence; series mostly up to 45.8 µM; activity change, negative = inhibition: at the top concentration
Summary of the method: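 qHTS, 4-pt dose (0.36-46 umol/L); SKOV3ip1-GFP, 1,200 cells/well, no FBS; primary omental fibroblast/mesothelial co-culture 48 h pre-grown; 2 h RT + 16 h 37 C; PBS wash, 4% PFA; GFP count 488/509 nm.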

Activity change, negative = inhibition, inactive:
CC(C)Cc1ccc(S(=O)(=O)Nc2ccc3[nH]c(=O)[nH]c3c2)cc1 -23.5%, CCOc1ccc(OCC)c(NC(=O)c2cnc3c(-c4ccccc4)c(C)nn3c2C)c1 -3.52%, O=C(NCc1ccccc1F)C(=O)NCC(c1cccs1)S(=O)(=O)c1cccs1 (configuration not stated) -3.43%, O=C(CCC1N=C2c3ccccc3N=C(SCc3ccccc3Cl)N2C1=O)NCc1cccs1 (configuration not stated) 8.31%, O=c1c2oc3ccccc3c2n(Cc2cccc(Cl)c2)c(=O)n1Cc1ccc2c(c1)OCO2 -0.84%, Cc1ccc(-n2c(=O)c3c(c4cc(C)ccc4n3C)n(CC(=O)NCCC3=CCCCC3)c2=O)cc1 1.21%, COC(=O)c1cc2oc(C)cc2n1Cc1cccc(Cl)c1 -11.3%, CCOc1ccccc1NC(=O)c1c(NCc2ccc(C)o2)sc2c1CCCCC2 0.671%, Cc1ccc(Cc2nc3ccccc3nc2SCC(=O)N2CCCCC2)cc1 -12.9%, NC(=O)c1ncn([C@@H]2O[C@H](CO)[C@@H](O)[C@@H]2O)c1N -15.4%, CCOc1ccc(CN2CCN(S(=O)(=O)c3ccc(Cl)cc3)CC2)cc1 1.88%, CCOc1ccc(-c2nonc2NC(=O)c2oc3ccc(Cl)cc3c2C)cc1 -31.7%, Cc1ccn2c(=O)c(C(=O)Nc3ccc(F)c(C(F)(F)F)c3)cnc2c1 1.83%, Cc1oc(-c2ccccc2F)nc1CN1CCC(C(=O)NCCc2ccc(Cl)cc2)CC1 -9.4%, COc1ccc(-c2nnn3c2nc(NCc2ccccc2)c2ccccc23)cc1 50.5%, COc1cccc(NC(=O)c2oc3ccccc3c2NC(=O)COc2ccccc2C)c1 -14.1%, COc1ccc2[nH]cc(CCNC(=O)Nc3c(C)cccc3C)c2c1 -9.52%

outcome, inactive:
O=C(NCc1cccc(Cl)c1)c1ccc(CS(=O)Cc2ccccc2Cl)o1 (configuration not stated), COc1ccccc1OCC(=O)NCC1(N2CCOCC2)CCCCC1, Cc1nc(C)c(CCNS(=O)(=O)c2ccc(C)c(C)c2)s1, O=c1oc2c(F)cc(F)cc2cc1S(=O)(=O)c1ccc(F)cc1, CCOc1ccc(N(CC)C(=O)c2cc3c(=O)oc4ccccc4c3s2)cc1, Cc1cccc(NC(=O)C(=O)NCC(c2cccnc2)N2CCc3ccccc32)c1C (configuration not stated), O=C(Cn1cc(S(=O)(=O)c2ccc(F)cc2)c(=O)c2cc3c(cc21)OCO3)Nc1ccccc1, CC1=C(C(=O)Nc2ccc(C)cc2C)C(CC(C)C)n2nc(SCc3ccccc3C)nc2N1 (configuration not stated), COC(=O)c1ccccc1NC(=O)CCCn1nc(C)c2sc3ccccc3c2c1=O, Cc1ccc(NC(=O)CSc2ncccc2C(=O)Oc2ccccc2Cl)cc1Cl
